Among all 44,000 compounds or so, about 340 (0.77%) were called active. Another 5% or so got no clear call; they are omitted. Calls come from the whole dose curve; as a rule, active = well fitted inhibition curve with a large enough effect; inconclusive = small, poorly fitted or top-dose-only effect; inactive = flat fitted curve, though single readings scatter. The list shows a part of the results.
Assay: Acumen qHTS Assay for Inhibitors of the mTORC1 Signaling Pathway in MEF (Tsc2-/-, p53-/-) Cells: Sytravon;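 note: plate controls were DMSO for no effect and rapamycin for full effect; nearly all actives have a fitted effect of over 50% in size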
Settings: phospho-rpS6 immunofluorescence/PI, 24 h; series mostly up to 38.3 µM; activity change, negative = inhibition: at the top concentration
Method in brief: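 Compounds act on Tsc2-/-, p53-/- fibroblasts carrying an empty vector for 24 h before fixation and dual staining for phospho-S6 and DNA (propidium iodide). Values are percentages of cells above a rapamycin-defined pS6/PI threshold.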

Activity change, negative = inhibition, inactive:
Cc1ccc(NC(=O)Cn2c(=O)n(Cc3ccc4c(c3)OCO4)c(=O)c3ccc(C(=O)NC4CCCCC4)cc32)c(C)c1 -8.86%
CCc1ccc(NC(=O)Cn2c(-c3cncs3)nc3ccccc32)cc1 -3.47%
CCn1c2ccccc2c2cc(CN3CCN(Cc4ccccc4C)CC3)ccc21 -14.2%
COc1ccc(C)cc1NC(=O)c1ccc2c(c1)nnn2C1CCCC1 3.15%
COc1ccccc1C(=O)Nc1ccc(OCc2cc(=O)n3cc(C)sc3n2)cc1 1.67%
Cc1ccc2[nH]c(=O)c3cc(C(=O)NCCc4ccc(Cl)cc4)sc3c2c1 -4.99%
c1ccc(OCCn2c(COc3ccccc3)nc3ccccc32)cc1 7.96%
O=C1c2oc3ccccc3c(=O)c2C(c2cccc(Cl)c2)N1c1ccccn1 (stereo unspecified) 6.33%
O=C(Cn1c(=O)c2cccn2c2cccnc21)NCc1ccccc1F 2.74%
CC1=C(C(=O)Nc2ccc(C)cc2C)C(c2ccccc2F)n2nc(SCC(=O)c3ccc(C)cc3)nc2N1 (stereo unspecified) 0.241%
O=S(=O)(Nc1ccc(-c2ccc(N3CCCC3)nn2)cc1)c1cc(F)ccc1F -1.75%
Cc1cc2nc(-c3ccc(OCc4ccccc4)cc3)cc(C(F)(F)F)n2n1 1.96%
CCc1ccc(NC(=O)c2cnc3sc(N4CCCC4)nn3c2=O)cc1 8.97%
O=C(Nc1ccc(S(=O)(=O)N2CCCCCC2)cc1)c1cc(=O)c2ccccc2o1 -13.2%
Cc1cc(-n2c(C)nc3ccccc3c2=O)ccc1NC(=O)c1ccc([N+](=O)[O-])cc1 0.688%
CC(=O)c1ccc(N2CCN(C(=O)CCS(=O)(=O)c3ccc4c(c3)oc(=O)n4C)CC2)cc1 -1.18%
CCOc1ccc(N2CC(C(=O)NCc3nnnn3-c3ccc(C)c(C)c3)CC2=O)cc1 (stereo unspecified) 5.3%
CCOc1ccc(NS(=O)(=O)c2ccc3[nH]cc(C(=O)NCC4CCCO4)c(=O)c3c2)cc1 (stereo unspecified) -9.21%
COC(=O)CN1C(=O)CSc2ccc(S(=O)(=O)Nc3cccc(Cl)c3C)cc21 -1.81%
Nc1c(-c2nc(-c3ccc(F)cc3)cs2)c2ccccn2c1C(=O)c1ccc2c(c1)OCO2 -0.492%
Cc1cc(=O)n(CC(=O)N2CCN(c3ccc(F)cc3)CC2)c2c1c(C)nn2C -0.679%
COc1ccc(NCc2cc3ccc(OC)cc3n(CC(=O)Nc3cc(Cl)ccc3C)c2=O)cc1 -7.09%
CCSc1ncc(Cl)c(C(=O)Nc2sc3c(c2C(=O)NC)CCCC3)n1 1.26%
CC(Oc1ccccc1F)C(=O)Nc1ccc(-c2nc3ccccc3s2)cc1 (stereo unspecified) -4.69%
CCc1cccc(NC(=O)CN(C)S(=O)(=O)c2cccc3cccnc23)c1 -4.69%
CC1CCc2c(sc(NC(=O)c3cc4nc(-c5ccc(Cl)cc5)cc(C(F)(F)F)n4n3)c2C#N)C1 (stereo unspecified) -0.128%
COc1ccc(S(=O)(=O)c2cnc(SCC(=O)Nc3cc(F)ccc3C)[nH]c2=O)cc1Cl -1.82%
CCC1CCCCN1C(=O)c1sc(-n2nc(C)c(Cc3ccccc3)c2C)nc1C (stereo unspecified) -3.41%
Cc1ccc(Cl)cc1NC(=O)CN1C(=O)C(C)(C)c2cc(S(=O)(=O)N3CCCCC3)ccc21 -13.1%
CC(C)CCN(C(=O)Nc1ccc(Cl)c(Cl)c1)C(C)c1cccs1 (stereo unspecified) 0%
COc1cccc(OC(=O)CSc2nnc(-c3ccc4c(c3)OCO4)o2)c1 -0.09%
Cc1cccc(-c2nc3c4ccccc4nc(NCc4ccc(F)cc4)n3n2)c1 -2.06%
CCOC(=O)c1c(S(=O)(=O)NCC(=O)NCc2ccccc2)c(C)n(C)c1C 2.05%
CCc1ccc2c(c1)NC(c1ccc(OC)cc1)=NC(c1ccncc1)=N2 1.64%
CCOC(=O)c1ccc(OC(=O)c2cn(-c3cccc(OC)c3)c(=O)c3ccccc23)cc1 -4.08%
COc1cc(/C=C/c2nc(C#N)c(N3CCC(C)CC3)o2)cc(OC)c1OC -2.7%
CCOc1ccccc1NC(=O)C(C)N(c1ccccc1)S(C)(=O)=O (stereo unspecified) 2.99%
Cc1ccc2c(c1)N(CCCC(=O)NCc1cccc(F)c1)C(=O)CO2 -9.35%
CSc1ncc(C(=O)N2CCN(c3cccc(C(F)(F)F)c3)CC2)c(C)n1 0.558%
COc1ccccc1OCC(=O)Nc1c(C(=O)c2ccc(F)cc2)oc2ccccc12 4.34%
Cc1ccc(NC(=O)C2CCN(S(=O)(=O)c3cc(-c4noc(C)n4)ccc3C)CC2)c(C)c1 -10.4%
CCCN(CCC)CCCNC(=O)c1cc2c(=O)[nH]c3ccccc3c2n1C 0.773%
COc1cccc(-n2c(=O)c3sc4ccccc4c3n(CC(=O)Nc3ccccc3C)c2=O)c1 1.47%
COc1ccc(C2CC(=O)c3cc(-c4nc(-c5cccc([N+](=O)[O-])c5)cs4)c(=O)n(-c4ccc(OC)cc4)c3C2)cc1 (stereo unspecified) -8.35%
COc1ccc(C2N3CC4(C)CN2CC(c2ccccc2)(C3)C4=O)cc1OC (stereo unspecified) -3.59%
O=C(CSc1c2c(nc3cc(Cl)ccc13)CCCC2)NCc1ccccc1Cl -26.5%
Cc1c(C(=O)Nc2ccc(F)cc2F)sc2nc3n(c(=O)c12)N=C(c1ccccc1)CS3 0.549%
CC(Sc1oc(-c2cccs2)nc1S(=O)(=O)c1ccccc1)c1ccccc1 (stereo unspecified) -6.2%
Cn1nccc1C(=O)NCc1ccc2c(c1)CCN2C(=O)c1ccc(Cl)cc1 -7.46%
O=C1c2ccccc2-c2onc3c(NCCO)cc(NC4CCCCC4)c1c23 3.33%
COc1ccc(C(CNC(=O)COc2cc(C)cc(C)c2)N2CCOCC2)cc1 (stereo unspecified) 1.25%
CCc1ccc(Oc2c(C(F)(F)F)oc3c(CN4CCCC(C)C4)c(O)ccc3c2=O)cc1 (stereo unspecified) 18.1%
COc1ccc(N2CCN(c3csc4ccccc4c3=O)CC2)cc1 7.11%
CCc1ccc(NC(=O)c2nn(-c3ccc(OC)cc3)c(=O)c3c2c2ccccc2n3C)cc1 -4.45%
CCCCOc1ccc(Cn2c(=O)sc3ccccc32)cc1 0.805%
CC(CNC(=O)CCS(=O)(=O)c1cc2c(cc1Cl)NC(=O)CO2)c1ccccc1 (stereo unspecified) 3.59%
CCOC(=O)c1ccccc1NC(=O)CCc1nc(-c2ccc(C)cc2)no1 0.0571%
CCc1ccccc1NC(=O)C1CCCN(c2cnccn2)C1 (stereo unspecified) -7.13%
O=C(Nc1cccc(NC(=O)c2ccccc2Cl)c1)c1cccc(Br)c1 -3.12%
Cc1cc(C)cc(NC(=O)C(=O)NCC(c2cccnc2)N2CCc3ccccc32)c1 (stereo unspecified) 4.35%
COc1cccc(C(=O)c2sc(Nc3ccc(F)c(Cl)c3)nc2N)c1 1.52%

Reference: PubChem BioAssay AID493208 (National Center for Advancing Translational Sciences (NCATS), 2011)
